From the supplement of paper PMC11417369
This is one part of the list.

These sequences were tested on PfHDP1 homeodomain (GST-tagged) (assay: gcPBM binding intensity (ln(normalized median fluorescence intensity)); higher = stronger DNA binding).
Procedure, shortened: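 The highest Masliner-normalised natural-log median intensity across replicate spots of either probe orientation is reported as binding intensity. GST-tagged P. falciparum DNA-binding domains expressed in E. coli were applied for 1 h to an Agilent 4 × 180k array of primer-extended double-stranded 36-bp intergenic genomic probes plus negative controls, and bound protein was detected with Alexa488 anti-GST antibody and scanned at 488 nm.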

Row | Sequence | gcPBM binding intensity (ln)
1 | TATCCCTTAGAATACACACCCATATGAGTGTGAACT [CACACA_site7398] | 6.55
2 | TGTTTTGTTTTTTGGGGTACATGTTTTGTATTATAT [XGTACX_site7997] | 7.94
3 | ATATCTTATGTTATCACACACACACGCACAAAACAG [CACACA_site6800] | 7.65
4 | ATTTGTTTACCTAAAAGTACAAATTTTTTATGTATA [XGTACX_site7689] | 6.09
5 | ATTTTTTTTATTTTTTATATAATTTTTTTATATTAT [CACACA_negctrl_site1521] | 6.45
6 | TGTATTTATAAACATGCACACGTGGTTGTATTTATA [CACACA_site5762] | 8.57
7 | TATAATATTATACATAGTACACATCACACATCGCAA [XGTACX_site4650] | 6.82
8 | ATATTATTTATAGGGTGTACCTTATTATTATAAGAA [XGTACX_site7148] | 6.36
9 | TAGAAAAACATTACGTGTACCAAACATCCTAGCAAC [XGTACX_site4888] | 6.82
10 | TATATACTTTTATGTACACACCTATAATATGGGTGA [CACACA_site5044] | 6.54
11 | AATTTACAAATATAATGTACATAATTATATATATAT [XGTACX_site278] | 8.55
12 | ATATATATATATTACACACACACAAAAAAAATAAAG [CACACA_site118] | 8.63
13 | TTTGGTTATATTTAAAAAAGACTAATGAAAATTAAA [XGTACX_negctrl_site526] | 6.13
14 | AAAAAAAAAAAAAATACACACATAAAATAAATAACA [CACACA_site439] | 6.49
15 | AATAGTAAAAATCACTGTACGTTTATTTTTAAAATG [XGTACX_site1035] | 6.15
16 | CCATATACAACCATACGTACATATATATATATATAT [XGTACX_site8193] | 9.33
17 | CATACCATACATAAAACACACAAAATTTACAGAATA [CACACA_site7451] | 6.81
18 | ACATATATATATATATATATATATATATTACATTTA [CACACA_negctrl_site627] | 7.51
19 | GAATTTTTTTAATGTTGTACTTTTTTTTTTTTTTCT [XGTACX_site648] | 6.04
20 | ACATATTTTATTTTTTGTACACATATATTATTTTTT [XGTACX_site6528] | 7.22
21 | TTTTTGTTAAACAGGGTGCTAATCTGAATTAATATT [GTGCAC_site9908] | 6.24
22 | TTATACATAAATTTTGTACACACAAAAAAAAAAAAG [CACACA_site8374] | 6.42

Row | Sequence | gcPBM binding intensity (ln)
23 | TTTCAAAAGTAATACTGTACTTATTTTTATGATTTA [XGTACX_site4184] | 6.04
24 | AATATATTTATAAGCACACACTAATAAACACAGACA [CACACA_site4377] | 6.91
25 | GTACATAATTATTATGCACACATATTTTTATGTATT [CACACA_site8132] | 10.5
26 | AAATATATATATATATATATATATGTGTGTGTATAT [GTGCAC_negctrl_site1] | 7.53
27 | CTTTATAATATTTGTTGTACACAAATATAACATATT [XGTACX_site709] | 7.11
28 | AATAATACAAAAGTTCAACAAAAAAAAAAAAAAAAT [CACACA_negctrl_site952] | 6.18
29 | GACATATAAATATACACACATACGTAAGTATATTAA [CACACA_site1790] | 6.47
30 | TTTTTATGGATATTTATATTATATTATGATTAAAAA [TGCATGCA_negctrl_site204] | 5.94
31 | TGTATAATATATATATGTACTTATGTATAATATTAT [XGTACX_site4328] | 6.25
32 | TGCATAAAAGTAAAAACATGCATGCCGTGGTATCTT [TGCATGCA_site664] | 6.03
33 | AAGATATCTAAGGAAATTAAACTACCAAAATATATA [TGCATGCA_negctrl_site338] | 6.19
34 | AAATGAAAGAATTAAAGTACATTTATATAATTTTAA [XGTACX_site3540] | 5.96
35 | AAGAGAAAAACATACACACACAACAAAATATGTATA [CACACA_site2719] | 6.5
36 | ATTTAAATATATTATTGTACATATACCTAATAAGAA [XGTACX_site6655] | 6.57
37 | ACTCCTATATAAATGAACCATATTCATAATATATAT [CACACA_negctrl_site1636] | 6.31
38 | TAATAATAATTATATACACACATGTATATTATATTT [CACACA_site1501] | 6.45
39 | AAAAAAAAAAATATAACACACAAAAAATTGTATCGA [CACACA_site1144] | 6.15
40 | ACAAAATTTACAAAATGTACATATTGTAGATATTGT [XGTACX_site7618] | 6.26
41 | ATATAGTAAAATTATACACACATGAATTTTCCCATA [CACACA_site3113] | 6.54
42 | CCATTAAATACATACACACCCACACCCAAAAAAAAA [CACACA_site4633] | 7.16
43 | TAATTTATTATATTTTGTACGTAAAATTATTATTGT [XGTACX_site8155] | 6.12
44 | TAGGAAAAGAAAAGCACACACATAAATAAATATATA [CACACA_site504] | 6.47

Row | Sequence | gcPBM binding intensity (ln)
45 | AATATATATTTATATTGTACATATATATATATTTCT [XGTACX_site2603] | 6.4
46 | AATATTTATTTTACATGTACTTATTTTTCTTTTAAC [XGTACX_site3631] | 6.72
47 | TAAAAATATATACATACATGCATACATATATATGTA [TGCATGCA_site774] | 6.47
48 | CAAGCCCTTCTGCTTACACACAGTAATTATTGTGTA [CACACA_site2953] | 6.3
49 | TTTTTAACATATCATACACACAACAACTTTTTATAG [CACACA_site1962] | 6.74
50 | ATTATATATACACGCACACACACTTATATATATATA [CACACA_site9093] | 8.99
51 | CATTCATTTATTAATTGTACTTTTAAGGTTAAATAA [XGTACX_site5838] | 5.99
52 | ATTAAATGCAGTTCGGTGCATTAAGGTTATGATGAA [GTGCAC_site9883] | 10.7
53 | TAAACATTTTTGCACGCACACAAAAAAAAAATAAAA [CACACA_site167] | 10.4
54 | ATTTTTTAACATATCATACACACAACCACTTTTTAT [CACACA_site1961] | 6.91
55 | CACATACAGACATACACACACATATAGATTAATATA [CACACA_site6399] | 7.02
56 | TATATATATATATTATGTACATATATATTAAATATG [XGTACX_site2494] | 8.71
57 | AATAAGAAATGTAAATGTACATAAAAAAAAGTATAT [XGTACX_site3573] | 7.11
58 | TTAGGGTTTTATAAATGTACTTATTTATACATCCTC [XGTACX_site5769] | 6.2
59 | TTTATATACTATTCAAAGTGATAAATAATATATGAA [TGCATGCA_negctrl_site352] | 6.12
60 | TATAAATAAAGACACACACACATATAAATAAATATA [CACACA_site7155] | 6.84
61 | ATTTATTTATTAAGATGTACTTATTAAAAATAATAA [XGTACX_site7392] | 6.01
62 | AAAAAAAAAAAACATACACACAATAAAATAGGGGTA [CACACA_site2399] | 6.45
63 | TATTTATATTTTAACACACACATATTTATATTTATA [CACACA_site7324] | 6.54
64 | ATTTATTCATTTGGGTGTACTATTTAAAAAAAACAA [XGTACX_site498] | 6.89
65 | TATATATAATTTTATACATGCACATATTATATATAT [TGCATGCA_site1036] | 8.4
66 | TATATTTTTTAAACCACACACAATATAGAGTATAAT [CACACA_site4510] | 6.92

Row | Sequence | gcPBM binding intensity (ln)
67 | TTTTTTTTTATATTTAGTACATATATATTATTATAT [XGTACX_site3334] | 6.49
68 | ACAAGATGATGGAAATGTACATAAAAAGAATCATAT [XGTACX_site8682] | 7.37
69 | AACACTACATAAAACTGTACAATAGTATTTTATTAT [XGTACX_site996] | 6.2
70 | CTTAGTGTATTTGAATGTACGCATAAATATAATTAT [XGTACX_site2830] | 6.66
71 | ATTATTAAAATGATATGTACGCACATAATATACATA [XGTACX_site3236] | 6.72
72 | TATATATTAATATATGCATGTACGATTATTATAATA [TGCATGCA_site446] | 6.96
73 | AAAAAAAAAAAACATACACACAAATATGTACATACA [CACACA_site7807] | 6.57
74 | TAAATACAAAAATGTACACACATATAAATATTTTTA [CACACA_site7612] | 6.25
75 | AATAAAAATCCACAAGCACACAAATGTACTTATATA [CACACA_site8783] | 6.24
76 | ATAATATTTTGAAACGGTACACTTTTAAAATACACT [XGTACX_site4423] | 6.55
77 | AAAATAAGGAAAAAAAAAAAAAAAAAAAAAAAAAAG [CACACA_negctrl_site1291] | 5.89
78 | AAAGTGTTAACCTAATCTTTAGTTTTTAAACAATAT [CACACA_negctrl_site841] | 5.97
79 | TATTGAAACGTATAGACACACATATGATATATATAT [CACACA_site3226] | 8.09
80 | ATTTATTTATTTATATGTACTTATATATGTATTTTC [XGTACX_site6269] | 6.56
81 | TGTATTTAAAATGGTTGTACATAAATAAAAATAAAA [XGTACX_site7771] | 6.74
82 | TTAATTAAATATTATACACACAAAAAAATAACTTTA [CACACA_site6197] | 6.43
83 | GAAAATTTTTGGTGTACACAAAAAAATCCAAAAAAA [CACACA_site5042] | 7.07
84 | TATGATTGTTTACGTTGTACAGCTGAATTGTTCTTA [XGTACX_site8114] | 6.18
85 | TGAAAATAGTTAATTTGTACACAAAAATTAAGAAAA [XGTACX_site5794] | 6.62
86 | AATTAAATAAATGTATGTACATAATAAATATGTATT [XGTACX_site4379] | 6.15
87 | TTTTATTTTATAAAAATAAAAAAAAAATTATTACAA [TGCATGCA_negctrl_site508] | 6.07
88 | TATGAAAATATATATTGTACAGAATCTATAAAAAAT [XGTACX_site8030] | 6.39
